# Measured values from PubChem BioAssay AID651820 (National Center for Advancing Translational Sciences (NCATS), 2012).
# Out of some 340,000 compounds screened, about 12,000 (3.5%) were called active. This list was built around the results that the source calls inconclusive (neither active nor inactive); the mix of calls is not that of the screen. Calls come from the whole dose curve; as a rule, active = well fitted inhibition curve with a large enough effect; inconclusive = small, poorly fitted or top-dose-only effect, or another doubt; inactive = no such curve, though single readings can be large or run the other way. Potencies of inconclusive entries are left out as doubtful fits.
# Assay: qHTS Assay for Inhibitors of Hepatitis C Virus (HCV)
# Conditions: Huh7.5.1 HCVcc-Cre (HCVcc is cell-culture hepatitis C virus) infection, luciferase reporter, 44 h; activity change, negative = inhibition: at 41.8 µM (top of the series) unless noted
# In short: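 Antiviral activity was scored by luciferase reporter output from cells infected with HCVcc-Cre (~0.5 moi) in presence of compound, 44 h infection period, cells seeded 1,000/well 4 h prior.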
# % is set by controls: 0 for no effect and ±100 for the full control effect; potency is the fitted concentration of half-maximal effect; tags give direction and shape of the fitted curve.
Compound,"activity change, negative = inhibition",Potency
COc1cc(/C=N/N2C(C)CCCC2C)cc(OC)c1O (stereo not drawn),inactive: 1.82%,
CCCS(=O)(=O)c1nc(S(=O)(=O)c2ccc(C)cc2)c(NCCCN2CCCC2=O)s1,,"inconclusive [inhibitor, single point]"
CC(C)NC(=O)c1ccc(Cl)cc1Cl,,"inconclusive [inhibitor, single point]"
Cc1cc(N2CCN(C)CC2)nc2ccc(NC(=O)c3ccccc3F)cc12,inactive: -24.5%,
O=c1[nH]c2ccc(Cl)cc2c(-c2ccccc2)c1N1CCN(c2ccccn2)CC1,,"inconclusive [inhibitor, single point]"
CC(=O)c1cc(F)c(N2CCN(C(=O)COc3ccc(F)cc3)CC2)cc1C,,"inconclusive [inhibitor, partial curve]"
COc1ccc(-c2csc(NC(=O)CCn3cnc4ccccc4c3=O)n2)cc1OC,,"inconclusive [inhibitor, full curve]"
O=C(CCc1ccc(Oc2cc([N+](=O)[O-])cc([N+](=O)[O-])c2)cc1)NC1CCCC1,,"inconclusive [inhibitor, single point]"
COc1ccc(C(CNC(=O)C(CCSC)NC(=O)c2ccccc2Cl)N2CCCCC2)cc1 (stereo not drawn),inactive: 1.89%,
COc1ccccc1CNC(=O)c1c(O)c2cc(OC)c(OC)cc2[nH]c1=O,,"inconclusive [inhibitor, full curve]"
CC(OC(=O)c1ccc(Cl)c(S(=O)(=O)N2CCOCC2)c1)C(=O)NC1CCCCC1C (stereo not drawn),inactive: 4.6%,
Cc1cc(C)cc(-n2ncc3c2CCCC3NC(=O)c2cc(C)oc2C)c1 (stereo not drawn),,"inconclusive [inhibitor, single point]"
CC(C)(C)/C(O)=C(/C#N)c1nc2ccccc2[nH]1,,"inconclusive [inhibitor, single point]"
CCCOc1cc(C)c(S(=O)(=O)NCCOC)cc1C,,"inconclusive [inhibitor, single point]"
O=C(NC1CC1)C(=O)c1c[nH]c2ccccc12,inactive: 9.59%,
O=C(/C=C/c1ccc(Cl)cc1Cl)n1cccn1,,"inconclusive [inhibitor, single point]"
COc1ccc2[nH]c3c(c2c1)CCN1C(=O)C(CC(=O)NCc2cccc(C(F)(F)F)c2)C[C@H](C(=O)N2CCOCC2)[C@@]31C (stereo partly drawn),,"inconclusive [inhibitor, partial curve]"
CC(C)Oc1ccc(CCNC(=O)C2CCC(=O)N(C3CCCCCC3)C2)cc1 (stereo not drawn),inactive: -7.54%,
CCCCN(CCCC)C(=S)N/N=C/c1c(C)[nH]n(-c2ccccc2)c1=O,,"inconclusive [inhibitor, single point]"
O=C(COc1ccccc1Cl)Nc1ccccc1C(=O)NC1CC1,,"inconclusive [inhibitor, single point]"
COc1ccc(S(=O)(=O)NC2CC(C)(C)NC(C)(C)C2)cc1C(C)C,,"inconclusive [inhibitor, partial curve, poor fit]"
CC(C)=CC(=O)N1CCC(N2CCC(C(=O)N3CCOCC3)CC2)CC1,inactive: 16.3%,
Cc1cc2ccccn2c1C(=O)c1ccc([N+](=O)[O-])o1,,active: 11.2 µM
CC1CCN(C2=NC(=O)/C(=C/c3cn(-c4ccccc4)nc3-c3cccc(S(=O)(=O)N(C)C)c3)S2)CC1,,"inconclusive [inhibitor, partial curve]"
CCOC(=O)c1cccc(Nc2ncnc3ccccc23)c1,,"inconclusive [inhibitor, partial curve]"

Compound,"activity change, negative = inhibition",Potency
O/N=C/c1ccc2ccccc2n1,inactive: 23.1%,
COc1cccc(-c2nc(C(N)=O)c3[nH]c(=O)n(-c4cccc(Cl)c4)c3n2)c1OC,inactive: -18.5%,
COC(=O)c1cc(/C=C/c2ccccc2)on1,inactive: 12.6%,
COc1cccc(/C=N/NC(=O)CCCC(=O)Nc2ccc(Br)cc2)c1,,"inconclusive [inhibitor, single point]"
COc1ccc(Cl)cc1NC(=O)c1noc2c1CCCC2,inactive: -25.5%,
O=C(/C=C/c1ccc(O)c(O)c1)OCCc1ccccc1,,"inconclusive [inhibitor, partial curve, poor fit]"
COc1ccc(CC(NC(C)=O)C(=O)NC2CCN(c3c(Cc4ccccc4)c(C)nc4ncnn34)CC2)cc1OC (stereo not drawn),inactive: 2.59% [at 0.335 µM],
COc1ccc(C(=O)N/N=C(/C)c2ccc(N3CCCCC3)cc2)cc1,inactive: -2.65%,
COc1cccc(-c2nn(C)c3sc(C(=O)NCCCN(C)Cc4ccccc4)cc23)c1,,"inconclusive [inhibitor, single point]"
Cc1cccn2c(=O)c3cc(C(=O)NCCN4CCOCC4)c(=N)n(CCCN4CCOCC4)c3nc12,,"inconclusive [inhibitor, single point]"
CCCC12CN3CC(C)(CN(C1)C3c1cccs1)C2=O (stereo not drawn),,"inconclusive [inhibitor, single point]"
O=C1CN(C(=O)COC(=O)CCS(=O)(=O)c2ccccc2Cl)c2ccccc2N1,inactive: 11.4%,
Cc1c(C(=O)N2CCc3ccccc32)oc2c1C(=O)CC(C)(C)C2,,"inconclusive [inhibitor, full curve, poor fit]"
Cc1nc2scc(C)n2c(=O)c1S(=O)(=O)Nc1ccc(N2CCOCC2)c(Cl)c1,,"inconclusive [inhibitor, single point]"
COc1ccc(OC)c(NC(=O)CCCCCn2nnc3ccccc3c2=O)c1,,"inconclusive [inhibitor, single point]"
O=C(CCc1nc2ccccc2[nH]c1=O)OCc1ccc(S(=O)(=O)N2CCOCC2)cc1,inactive: 10.4%,
Cc1ccc(CNc2nc(N)c([N+](=O)[O-])c(NCCO)n2)cc1,,"inconclusive [inhibitor, single point]"
Cc1ccc(NC(=O)CN(C)S(=O)(=O)c2cccs2)cc1F,inactive: -26.5%,
CC(OC(=O)CCCN=C1NS(=O)(=O)c2ccccc21)C(=O)Nc1ccccc1F (stereo not drawn),inactive: 2.31%,
O=C(Nc1cccc(Cl)c1)c1ccc(F)c(S(=O)(=O)NCc2cccs2)c1,,"inconclusive [inhibitor, single point]"
CCOc1[nH]n(-c2ccccc2)c(=O)c1C=Nc1ccc(OC)cc1,,"inconclusive [inhibitor, full curve]"
Cn1cnc(S(=O)(=O)NCc2ccccc2)c1,inactive: 39.5%,
COC(=O)[C@H](CCSC)NC(=O)NCc1ccc(S(N)(=O)=O)cc1,inactive: 13.8%,
COc1ccccc1CN1C[C@@H]2C[C@@H](C3=Cc4cccc(OC)c4OC3)N3CCC[C@@]23C1=O,,"inconclusive [inhibitor, full curve, poor fit]"
Cc1ccc2nc(NC(=O)CSCC(=O)OCC(=O)c3ccc(Br)cc3)sc2c1,inactive: 3.76%,

Compound,"activity change, negative = inhibition",Potency
CCOC(=O)N/N=C(C)/C=C/c1ccccc1,,"inconclusive [inhibitor, single point]"
Cc1coc2cc3oc(=O)cc(C)c3cc12,,"inconclusive [inhibitor, partial curve]"
O=C(Nc1ccccc1C(=O)Nc1ccccc1)c1ccccc1Br,,"inconclusive [inhibitor, single point]"
O=C(CSCc1cccc(F)c1)NCc1ccccc1,inactive: 18.2%,
C/C(=N\NC(=O)CCc1ccc(S(=O)(=O)N2CCOCC2)cc1)c1ccc(OC(F)F)cc1,inactive: -29.2%,
O=c1c2ccccc2n(Cc2cccc(F)c2)c(=O)n1C1CCCC1,,"inconclusive [inhibitor, single point]"
Cc1nc2ccc(S(=O)(=O)N(C)CC(=O)NCCc3ccccc3)cc2s1,,"inconclusive [inhibitor, single point]"
CSc1nc(N2CCOCC2)c2c3c(sc2n1)CCC3,,active: 11.2 µM
COc1cccc(S(=O)(=O)N2CCN(C(=O)c3ccco3)CC2)c1,inactive: 16.9%,
CCC(=O)Nc1nc2ccccc2n1Cc1ccccc1C,,"inconclusive [inhibitor, single point]"
Cn1c(=O)c2c(nc(SCC(=O)N3c4ccccc4CCc4ccccc43)n2C)n(C)c1=O,inactive: -1.34%,
O=C(Nc1ccccc1-c1ccccc1)c1ccco1,,"inconclusive [inhibitor, single point]"
Cc1ccc(/C=C/C(=O)NC2CCS(=O)(=O)C2)cc1 (stereo not drawn),inactive: 26.2%,
CCOc1ccc(C(=O)CCN2CCCCCC2)cc1,inactive: -17.1%,
COC(=O)c1ccc(CSc2nc3ccccc3c(=O)n2-c2ccc(OC)c(OC)c2)o1,,active: 10 µM
CCOC(=O)C1=C(N)OC2=C(C(=O)CCC2)C1c1sccc1C (stereo not drawn),inactive: 9.47%,
CN(C)CCCn1c(NC(=O)C2CCCCC2)nc2ccccc21,,"inconclusive [inhibitor, single point]"
CN(CC(=O)Nc1cccc(F)c1)C(=O)c1cccnc1Sc1ccc(Cl)cc1,inactive: -20.1%,
O=C(C[C@H]1C/C=C\C[C@H](NC(=O)OCC2c3ccccc3-c3ccccc32)C(=O)O[C@@H](c2ccccc2)CNC1=O)NCCO,,"inconclusive [inhibitor, full curve, poor fit]"
COc1ccc(NS(=O)(=O)c2cc(NC(=O)c3cc(=O)c4ccccc4o3)ccc2OC)cc1,inactive: -13.9%,
COc1ccc(CCNC(=O)C(C)n2nc(C)c3c(C)n(-c4ccc(C)cc4)nc3c2=O)c(OC)c1 (stereo not drawn),,active: 3.16 µM
O=C(Nc1ccc(S(=O)(=O)Nc2ccccn2)cc1)c1cccc([N+](=O)[O-])c1,inactive: -9.38%,
C=CCN(C(C(=O)OC)C(C)C)S(=O)(=O)CCNCc1ccccc1 (stereo not drawn),inactive: 45.6%,
